# PubChem BioAssay (Tox21)
# Inconclusive means that the source gave no clear call. Such entries were picked first, then a sample of the others. For some of these results: A potency beside an inconclusive call is a rough fit, not a confirmed value. Activity calls are given as the source filed them. Unless noted, calls follow the shape of the dose curve; as a rule, active = well fitted curve in the direction sought with a large enough effect in the repeat runs; inconclusive = weak or mixed curves; inactive = no such curve, though single readings can be large; an effect the other way counts as inactive or inconclusive.
# What was measured:
# [1] = target: Thyrotropin-releasing hormone receptor (Homo sapiens) (UniProt P34981); assay: qHTS assay to identify small molecule antagonists of the thyrotropin-releasing hormone receptor (TRHR) signaling pathway (AID 1346877; active = well fitted inhibition curve with a large enough effect in the repeat runs, not every such curve was filed as active; inconclusive = weak or mixed curves; also: potency is read from the fitted curve at half-maximal effect); conditions: TRHR-HEK293, TRH-induced calcium fluorescence, antagonist mode; series mostly up to 51.3 µM
# UniProt P34981, sequence (P34981 whole entry, looked up): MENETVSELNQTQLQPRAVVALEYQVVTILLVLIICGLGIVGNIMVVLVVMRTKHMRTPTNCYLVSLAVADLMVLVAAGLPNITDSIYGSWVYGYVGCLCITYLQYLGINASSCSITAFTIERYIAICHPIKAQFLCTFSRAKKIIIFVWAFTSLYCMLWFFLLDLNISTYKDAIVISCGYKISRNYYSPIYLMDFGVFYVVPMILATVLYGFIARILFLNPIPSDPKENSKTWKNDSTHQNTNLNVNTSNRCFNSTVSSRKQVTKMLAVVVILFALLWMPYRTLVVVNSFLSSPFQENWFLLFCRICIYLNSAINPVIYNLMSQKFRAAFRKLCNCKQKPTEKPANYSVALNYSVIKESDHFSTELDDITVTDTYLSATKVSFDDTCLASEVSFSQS
# Method in brief: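 Human TRHR in HEK293 cells; inhibition of the intracellular calcium rise triggered by 1 nM TRH was followed by fluorescence over 3 min. Compounds were run at 15 concentrations, three replicates each.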
# [2] = qHTS assay to identify small molecule antagonists of the TGF-beta/Smad signaling pathway (AID 1346924; active = well fitted inhibition curve with a large enough effect in the signal ratio in the repeat runs, not every such curve was filed as active; inconclusive = weak or mixed curves; the % refers to the signal ratio); conditions: SBE-bla HEK293T, TGF-beta/Smad reporter, beta-lactamase ratio; activity, negative = inhibition: at 76.8 µM (top of the series) unless noted
# Method in brief: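 Read-out was FRET-substrate fluorescence (405 nm excitation; 460 and 530 nm emission) after 2 h at room temperature. Before that, cells carrying a Smad-binding-element beta-lactamase reporter in HEK 293T had been stimulated 5 h at 37 C with TGF-beta1 (0.25 ng/mL addition solution) in the presence of test compound.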
# [3] = qHTS assay to identify small molecule agonists of the TGF-beta/Smad signaling pathway (AID 1346859; active = well fitted activation curve with a large enough effect in the signal ratio in the repeat runs, not every such curve was filed as active; inconclusive = weak or mixed curves; the % refers to the signal ratio; also: % is scaled to controls: 0 for no effect and ±100 for the full control effect); conditions: SBE-bla HEK293T, TGF-beta/Smad beta-lactamase reporter, 5 h; activation: at 76.8 µM (top of the series)
# Method in brief: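 Beta-lactamase reporter activity downstream of Smad binding elements was measured in stably transfected HEK 293T cells; compounds were incubated for 5 hr, substrate for 2 hr at room temperature.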
# [4] = target: Cytochrome P450 2C9 (Homo sapiens) (UniProt P11712); assay: Cytochrome P450 Family 2 Subfamily C Member 9 (CYP2C9) small molecule antagonists: luciferase reporter qHTS assay (AID 1671198); conditions: P450-Glo CYP2C9 enzyme assay, luciferin luminescence; series mostly up to 115 µM; also: potency is read from the fitted curve at half-maximal effect; nearly all actives have a fitted effect of over 50% in size
# UniProt P11712, sequence (P11712 whole entry, looked up): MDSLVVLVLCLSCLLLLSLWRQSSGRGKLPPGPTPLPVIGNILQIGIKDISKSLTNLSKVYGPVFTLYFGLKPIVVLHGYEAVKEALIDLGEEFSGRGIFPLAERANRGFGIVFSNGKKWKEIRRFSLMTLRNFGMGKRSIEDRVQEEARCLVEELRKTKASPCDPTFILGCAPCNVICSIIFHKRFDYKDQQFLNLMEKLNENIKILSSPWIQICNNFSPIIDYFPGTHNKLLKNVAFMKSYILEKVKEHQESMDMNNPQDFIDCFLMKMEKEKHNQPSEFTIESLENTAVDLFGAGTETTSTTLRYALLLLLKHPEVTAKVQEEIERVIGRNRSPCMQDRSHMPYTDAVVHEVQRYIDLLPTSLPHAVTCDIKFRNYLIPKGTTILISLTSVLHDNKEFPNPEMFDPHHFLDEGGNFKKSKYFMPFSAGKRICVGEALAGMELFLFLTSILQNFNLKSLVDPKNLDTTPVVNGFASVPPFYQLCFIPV
# Method in brief: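 CYP2C9 activity was measured with a P450-Glo proluciferin substrate. Enzyme–substrate mix was held with compound for 10 min at room temperature, then NADPH regeneration solution was added for 1 h at 37C. Luciferin product was read as luminescence.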
# [5] = target: Cytochrome P450 2D6 (Homo sapiens) (UniProt P10635); assay: Cytochrome P450 Family 2 Subfamily D Member 6 (CYP2D6) small molecule antagonists: luciferase reporter qHTS assay (AID 1671196); conditions: P450-Glo CYP2D6 enzyme assay, luciferin luminescence, 1 h; series mostly up to 115 µM; also: potency is read from the fitted curve at half-maximal effect; nearly all actives have a fitted effect of over 50% in size
# UniProt P10635, sequence (P10635 whole entry, looked up): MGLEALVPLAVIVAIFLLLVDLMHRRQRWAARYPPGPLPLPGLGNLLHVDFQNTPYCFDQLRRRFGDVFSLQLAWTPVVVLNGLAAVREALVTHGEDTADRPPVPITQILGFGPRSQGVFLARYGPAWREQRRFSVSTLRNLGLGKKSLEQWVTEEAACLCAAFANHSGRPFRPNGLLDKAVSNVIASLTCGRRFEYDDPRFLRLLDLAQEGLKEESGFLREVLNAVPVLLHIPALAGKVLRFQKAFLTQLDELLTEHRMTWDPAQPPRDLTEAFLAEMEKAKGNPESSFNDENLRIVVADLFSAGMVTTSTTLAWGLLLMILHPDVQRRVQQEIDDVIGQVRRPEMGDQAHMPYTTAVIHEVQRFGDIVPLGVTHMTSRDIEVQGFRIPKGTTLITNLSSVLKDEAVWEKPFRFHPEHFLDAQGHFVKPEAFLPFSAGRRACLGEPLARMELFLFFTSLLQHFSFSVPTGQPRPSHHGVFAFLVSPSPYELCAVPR
# Method in brief: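 Quantitative HTS of Tox21 chemicals against CYP2D6 using a luminescent proluciferin substrate. After NADPH addition, 1 h room-temperature reaction; luminescence recorded 20 min post detection reagent.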
# [6] = target: Thyrotropin-releasing hormone receptor (Homo sapiens) (UniProt P34981); assay: qHTS assay to identify small molecule agonists of the thyrotropin-releasing hormone receptor (TRHR) signaling pathway (AID 1346891; calls by dose curve; also: potency is read from the fitted curve at half-maximal effect); conditions: TRHR-HEK293 calcium fluorescence, agonist mode; series mostly up to 57.6 µM
# Method in brief: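 Overnight-plated (18 h, 37 °C, 5% CO2) TRHR-Hek293 cells; 2 h calcium dye at 37 °C; compound in DMSO; 3-min kinetic fluorescence read.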
# [7] = Caspase-3/7 induction in CHO-K1 cells by small molecules, qHTS cell viability counter screen (AID 1346979); conditions: CellTiter-Fluor fluorescence, 17 h; activity change, negative = cytotoxicity: at 92.4 µM (top of the series); also: potency is read from the fitted curve at half-maximal effect; nearly all actives have a fitted effect of over 35% in size
# Method in brief: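 Multiplexed with Caspase-Glo 3/7 in CHO-K1 cells, this counter screen added CellTiter-Fluor after 16hr of compound exposure and recorded fluorescence 1hr later.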
# [8] = Caspase-3/7 induction in CHO-K1 cells by small molecules, qHTS assay (AID 1346980); conditions: CHO-K1 caspase-3/7 induction, Caspase-Glo luminescence, 17 h; series mostly up to 92.4 µM; also: potency is read from the fitted curve at half-maximal effect; nearly all actives have a fitted effect of over 15% in size
# Method in brief: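 Wild-type cells were seeded at 1,500 per well and settled 5 hr at 37 C, 5% CO2, then exposed to DMSO-dissolved compounds for 17 hr. Caspase-Glo 3/7 reagent was added, and luminescence was read after 30min at room temperature.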
# [9] = target: Nuclear receptor subfamily 1 group I member 2 (Homo sapiens) (UniProt O75469); assay: Human pregnane X receptor (PXR) small molecule agonists, qHTS assay (AID 1346982); conditions: PXR-Luc HepG2, CYP3A4 luciferase reporter, 24 h; series mostly up to 92.4 µM; also: nearly all actives have a fitted effect of over 35% in size; also: potency is read from the fitted curve at half-maximal effect; as to activation: % is scaled to controls: 0 for no effect and ±100 for the full control effect
# UniProt O75469, sequence (O75469 whole entry, looked up): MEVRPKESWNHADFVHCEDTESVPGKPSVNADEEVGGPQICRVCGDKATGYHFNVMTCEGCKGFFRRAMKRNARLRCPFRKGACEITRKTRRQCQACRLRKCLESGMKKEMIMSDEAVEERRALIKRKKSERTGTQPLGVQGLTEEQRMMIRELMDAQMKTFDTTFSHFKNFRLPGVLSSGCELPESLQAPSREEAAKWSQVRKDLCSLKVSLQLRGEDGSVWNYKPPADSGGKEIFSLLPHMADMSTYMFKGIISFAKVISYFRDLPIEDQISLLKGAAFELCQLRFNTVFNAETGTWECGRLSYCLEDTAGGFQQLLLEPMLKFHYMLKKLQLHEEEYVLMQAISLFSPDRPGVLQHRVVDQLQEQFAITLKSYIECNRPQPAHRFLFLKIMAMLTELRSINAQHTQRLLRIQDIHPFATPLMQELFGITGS
# Method in brief: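 After plating in 5% charcoal-stripped FBS and a 5 hr rest, PXR-Luc HepG2 cells received compounds in DMSO. Following 24 hr at 37 C, ONE-Glo was added and light output read.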
# [10] = target: Cytochrome P450 2C19 (Homo sapiens) (UniProt P33261); assay: Cytochrome P450 Family 2 Subfamily C Member 19 (CYP2C19) small molecule antagonists: luciferase reporter qHTS assay (AID 1671197); conditions: P450-Glo CYP2C19 enzyme, luciferin luminescence, 1 h; series mostly up to 115 µM; also: potency is read from the fitted curve at half-maximal effect; nearly all actives have a fitted effect of over 65% in size
# UniProt P33261, sequence (P33261 whole entry, looked up): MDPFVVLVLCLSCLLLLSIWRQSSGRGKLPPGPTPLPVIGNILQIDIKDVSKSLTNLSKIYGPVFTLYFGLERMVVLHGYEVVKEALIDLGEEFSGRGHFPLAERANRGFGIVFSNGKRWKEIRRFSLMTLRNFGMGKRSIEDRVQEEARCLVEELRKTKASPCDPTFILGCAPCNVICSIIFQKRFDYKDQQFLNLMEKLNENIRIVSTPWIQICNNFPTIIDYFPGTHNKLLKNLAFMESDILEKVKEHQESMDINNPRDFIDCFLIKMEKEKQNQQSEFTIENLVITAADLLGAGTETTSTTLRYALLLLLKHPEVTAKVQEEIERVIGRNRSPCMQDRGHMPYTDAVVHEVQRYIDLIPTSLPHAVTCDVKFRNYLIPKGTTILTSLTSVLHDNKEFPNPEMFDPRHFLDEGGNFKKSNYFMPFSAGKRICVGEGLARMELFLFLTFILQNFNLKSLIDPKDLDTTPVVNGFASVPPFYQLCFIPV
# Method in brief: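 P450-Glo CYP2C19 screening system; proluciferin substrate; DMSO compound stocks; 10 min RT preincubation; NADPH regeneration, 1 h at 37C; luciferin detection reagent, 20 min RT; luminescence as RLU.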
# [11] = Human pregnane X receptor (PXR) small molecule agonists, qHTS cell viability counter screen (AID 1346977); conditions: PXR-Luc HepG2 viability, CellTiter-Fluor, 24 h; series mostly up to 92.4 µM; also: potency is read from the fitted curve at half-maximal effect; nearly all actives have a fitted effect of over 50% in size
# Method in brief: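 After a 5hr pre-incubation, PXR-Luc HepG2 cells received compounds plus positive control in DMSO and were kept 24hr at 37C. Cell viability was quantified by fluorescence from CellTiter-Fluor added for the final hour.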
# [12] = Caspase-3/7 induction in HepG2 cells by small molecules, qHTS cell viability counter screen (AID 1346981); conditions: CellTiter-Fluor fluorescence, 17 h; series mostly up to 92.4 µM; also: potency is read from the fitted curve at half-maximal effect; nearly all actives have a fitted effect of over 30% in size
# Method in brief: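 The parent HepG2 line is plated at 2,000 cells per well and rested 5 hr before compound pinning from DMSO stocks. Following a 16-hr treatment at 37 C, a fluorogenic live-cell substrate (CellTiter-Fluor) reports viability after 1 hr.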
# Tags tell the direction and shape of the fitted curve.
compound,measurement,setting,value
NS(=O)(=O)c1cc(C(=O)O)c(NCc2ccco2)cc1Cl,Potency,[1],"inconclusive: 0.0586 µM [inhibitor, single point]"
same,"activity, negative = inhibition",[2],inconclusive: 0.0041%
Cc1ccc(Br)cc1,"activity, negative = inhibition",[2],inconclusive: -2.99%
C=CCCCC,"activity, negative = inhibition",[2],inconclusive: 4.78%
CCCCCCCCc1ccc(S(=O)(=O)O)cc1,Potency,[3],inactive
same,"activity, negative = inhibition",[2],inconclusive: 4.16%
same,Potency,[4],"inconclusive: 62.7 µM [inhibitor, partial curve]"
c1ccc2sc(SSc3nc4ccccc4s3)nc2c1,activation,[3],inactive: 3.56% [at 15.8 µM]
same,Potency,[5],"inconclusive: 15.1 µM [inhibitor, partial curve, poor fit]"
same,Potency,[4],active: 9.52 µM
O=C(Cl)c1ccc(Cl)cc1Cl,Potency,[6],"inconclusive: 43.6 µM [activator, single point]"
same,"activity, negative = inhibition",[2],inconclusive: -22.2%
same,Potency,[7],"inconclusive: 68.6 µM [cytotoxic, single point]"
same,Potency,[8],"inconclusive: 61.1 µM [activator, partial curve]"
same,Potency,[9],inactive
same,Potency,[10],"inconclusive: 89.4 µM [inhibitor, single point]"
same,Potency,[4],"inconclusive: 39.9 µM [inhibitor, partial curve]"
COc1ccc2c(c1OC)C(=O)O[C@@H]2[C@H]1c2c(cc3c(c2OC)OCO3)CCN1C,Potency,[11],"inconclusive: 15 µM [cytotoxic, partial curve]"
same,Potency,[12],active: 15 µM
same,Potency,[5],active: 11 µM
same,Potency,[10],active: 1.38 µM
OCC(CO)n1cnc(-c2ccc(F)cc2)c1-c1ccnc(Oc2ccccc2)n1,"activity, negative = inhibition",[2],inconclusive: 0.608%
same,Potency,[9],"inconclusive: 68.5 µM [activator, single point]"
same,Potency,[5],"inconclusive: 39.9 µM [inhibitor, partial curve]"
same,Potency,[4],active: 35.6 µM
